Assay results reported in PMC4336329 (PLoS ONE, 2015).
Screen size: about 310,000 compounds; about 14,000 (4.5%) showed an effect of 50% or more. The effect is printed as a negative number. This is one part of the list.

target: human ether-à-go-go-related gene (hERG) potassium channel (human, UniProt Q12809); assay: primary screen, population patch clamp on CHO cells stably expressing hERG
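Note: peak tail current of the secondary pulse compared with the same well before compound.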

Chain of human ether-à-go-go-related gene (hERG) potassium channel (Q12809 whole entry, looked up): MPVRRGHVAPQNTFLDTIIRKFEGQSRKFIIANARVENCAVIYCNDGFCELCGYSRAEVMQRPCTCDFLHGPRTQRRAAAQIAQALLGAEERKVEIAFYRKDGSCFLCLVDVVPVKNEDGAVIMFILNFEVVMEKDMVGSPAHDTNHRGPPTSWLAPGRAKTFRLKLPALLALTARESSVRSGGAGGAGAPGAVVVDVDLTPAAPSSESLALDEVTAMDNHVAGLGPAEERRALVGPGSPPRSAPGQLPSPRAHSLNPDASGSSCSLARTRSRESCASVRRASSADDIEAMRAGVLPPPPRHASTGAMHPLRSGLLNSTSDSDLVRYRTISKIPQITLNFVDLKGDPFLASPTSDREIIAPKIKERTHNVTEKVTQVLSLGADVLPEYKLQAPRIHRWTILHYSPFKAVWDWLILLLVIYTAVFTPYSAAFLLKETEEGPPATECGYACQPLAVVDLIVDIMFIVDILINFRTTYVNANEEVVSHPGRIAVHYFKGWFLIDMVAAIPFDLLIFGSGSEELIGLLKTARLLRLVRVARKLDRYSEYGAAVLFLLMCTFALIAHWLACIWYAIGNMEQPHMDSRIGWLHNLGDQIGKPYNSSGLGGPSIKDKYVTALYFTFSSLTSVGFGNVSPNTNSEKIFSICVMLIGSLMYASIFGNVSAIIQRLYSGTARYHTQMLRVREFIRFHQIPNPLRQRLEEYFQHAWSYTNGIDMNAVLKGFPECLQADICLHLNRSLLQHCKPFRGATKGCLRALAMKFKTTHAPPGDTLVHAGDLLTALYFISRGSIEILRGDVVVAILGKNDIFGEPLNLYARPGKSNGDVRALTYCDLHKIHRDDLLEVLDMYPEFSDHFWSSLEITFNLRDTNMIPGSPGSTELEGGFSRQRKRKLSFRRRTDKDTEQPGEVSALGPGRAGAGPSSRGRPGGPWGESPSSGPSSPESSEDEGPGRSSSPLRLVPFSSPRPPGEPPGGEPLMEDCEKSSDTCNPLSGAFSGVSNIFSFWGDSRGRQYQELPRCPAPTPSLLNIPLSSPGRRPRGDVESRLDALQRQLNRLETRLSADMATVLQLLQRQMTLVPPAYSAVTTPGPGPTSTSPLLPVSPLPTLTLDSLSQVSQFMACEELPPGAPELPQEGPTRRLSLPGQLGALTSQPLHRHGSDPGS

Row | SMILES | hERG current change (%, negative = inhibition) at 10uM [%]
1 | CCN(CC)S(=O)(=O)c1cccc(C(=O)Oc2cccnc2)c1 | -8.07
2 | CCS(=O)(=O)C(C)(CCl)C(=O)Nc1ccc(C(=O)OC)cc1 (centres unmarked) | -2.52
3 | COc1cc(-n2c(=O)c3ccccc3n(CC(=O)OCc3ccccc3)c2=O)cc(OC)c1OC | 49.1
4 | CCOc1cc(OCC)cc(C(=O)Nc2cccnc2)c1 | -12.9
5 | Cc1ccccc1NS(=O)(=O)c1ccc2c(c1)oc(=O)n2C | 18.6
6 | CCOC(=O)c1nnc(-c2ccccc2)nc1NCc1ccc(Cl)cc1 | -19.3
7 | CCCCOc1ccc(-c2cc(C(F)(F)F)c(C#N)c(SCC(=O)O)n2)cc1 | 11.8
8 | O=C(CCc1ccccc1)NNC(=O)Nc1ccc(Cl)cc1 | 20.5
9 | CCCC(O)(CCC)C(=O)NN(C(=O)OC)c1ccccc1 | 21.3
10 | Cc1ccc(OCC(=O)NNC(=O)c2cccnc2)cc1C | 8.02
11 | COC(=O)c1cc(NS(=O)(=O)c2ccc(Cl)c(N3C(=O)c4ccc(C(=O)O)cc4C3=O)c2)cc(C(=O)OC)c1 | 2.53
12 | CCCOc1ccc(/C(CC)=N/NC(=O)C2(C)CC2(Br)Br)cc1 (centres unmarked) | -6.48
13 | CSc1nncc(-c2ccc(F)c(F)c2)n1 | 10.8
14 | CC(C)CCOc1cccc(OCC(=O)N(C)C2CCS(=O)(=O)C2)c1 (centres unmarked) | -26.6
15 | Cc1ccccc1OCC(=O)OCC(=O)Nc1ncc(Cl)c(C)c1Cl | 3.55
16 | CCC[C@@H]1CCCO[C@@](C(=O)NCc2ccc(S(C)(=O)=O)cc2)(C(F)(F)F)C1 | -5.92
17 | CCOc1ccc(-c2ccc(SCC(=O)NCC3CCCO3)nn2)cc1 (centres unmarked) | 6.23
18 | O=C1C2C3C=CC(C3)C2C(=O)N1c1cccc(N2C(=O)C3C4C=CC(C4)C3C2=O)n1 (centres unmarked) | -9.57
19 | Cc1cc(C)c(S(=O)(=O)Nc2ccncc2)cc1C | 18.1
20 | CC1=CC(C)(C)n2c(O)c(N=N)c3c(C)c(C)cc1c32 | 5.73
21 | CN(CC(=O)Nc1cccc(F)c1)C(=O)c1cn(-c2ccccc2)nc1-c1ccc(Cl)cc1 | 8.82
22 | Fc1ccccc1N1CCN(C2CCN(Cc3c[nH]c4ccccc34)CC2)CC1 | -54.5
23 | C=CCC(C(=O)OC)(C(=O)OC)c1ccc([N+](=O)[O-])cc1[N+](=O)[O-] | -6.05

Row | SMILES | hERG current change (%, negative = inhibition) at 10uM [%]
24 | CCC(=O)Nc1cc(Cl)ccc1C(=O)O | -7.2
25 | Cn1cc(C(=O)NCc2ccc(F)cc2)cn1 | 2.34
26 | COc1cc2c(cc1OC)CN(C(=O)c1ccccc1C(=O)O)CC2 | 15.7
27 | O=C(NCC1CCCO1)c1onc(CSc2ccccc2)c1C(=O)O (centres unmarked) | 10.1
28 | COc1cc(OC)cc(C(=O)Nn2cc(C(=O)Nc3c(F)cccc3F)c3ccccc3c2=O)c1 | -1.13
29 | Cc1nc(NC(=O)C23CC4CC(CC(C4)C2)C3)sc1Cc1ccc2c(c1)OCO2 | 6.08
30 | Cc1ccccc1NC(=O)Cn1nc(C)n2cccc2c1=O | 0.673
31 | COC(c1ccccc1)c1nnc(CCC(=O)N(C)Cc2cccc(-n3cccn3)c2)o1 (centres unmarked) | -27
32 | CCC(C)c1ccc(NC(=O)NCCN2CCCCC2)cc1 (centres unmarked) | -47.2
33 | Cc1ccc(Nc2nnc(SC3CCOC3=O)s2)c(C)c1 (centres unmarked) | -16.9
34 | CCOc1ccc(NC(=O)c2sc3nc(N4CCOCC4)c4c(c3c2N)CCCC4)cc1 | 24.4
35 | O=c1[nH]c(SCc2ccccc2)nc2c1cnn2-c1ccc(F)cc1 | 7.35
36 | Cn1c(CC(=O)Nc2ccccc2F)nnc1SCC(=O)Nc1nncs1 | 3.33
37 | Cc1ccc(C(=O)NN2C(=O)C3C4c5ccccc5C(c5ccccc54)[C@@H]3C2=O)cc1 (some centres unmarked) | 14.7
38 | Cc1ccc(S(=O)(=O)NCC(c2ccc3c(c2)OCO3)N2CCN(c3ccccc3)CC2)cc1 (centres unmarked) | 12.8
39 | CSc1nc(N)nc(-c2cccs2)c1C#N | -26.2
40 | COc1cccc(COc2ncnc3sccc23)c1 | -9.79
41 | CCc1cc(-c2n[nH]c(C)c2-c2nc3ccccc3n2C)c(O)cc1O | 11.7
42 | COc1ccc(C(=O)O/N=C/c2c(C(F)(F)F)nn(C)c2SCc2ccccc2Cl)cc1 | -9.6
43 | COc1cc(NC(=O)COC(=O)c2ccc(S(=O)(=O)N3CC(C)CC(C)C3)cc2)c(C)cc1[N+](=O)[O-] (centres unmarked) | 4.52
44 | CCC(c1nnnn1C(C)(C)C)N1CCN(C2CCCC2)CC1 (centres unmarked) | -5.45
45 | CCc1ccc(NC(=O)CS(=O)CC(=O)NCC2OCCc3ccccc32)cc1 (centres unmarked) | -6.57
46 | O=[N+]([O-])c1ccc(S(=O)(=O)N2CCSC2c2ccco2)cc1 (centres unmarked) | 2.68

Row | SMILES | hERG current change (%, negative = inhibition) at 10uM [%]
47 | O=S(=O)(NCCSCc1ccc(Cl)cc1Cl)c1ccc2c(c1)OCCO2 | 0.999
48 | O=C(NCc1cccc(Cl)c1)c1ccc2nc[nH]c2c1 | 13.4
49 | Cc1ccc(C2=NN(CC(=O)NCc3cccs3)C(=O)CC2)cc1 | -43.9
50 | O=C(OCC(=O)N1c2ccccc2Sc2ccccc21)c1cccnc1 | 5.27
51 | CCCCNC(=O)NNC(=O)C1CC1(c1ccccc1)c1ccccc1 (centres unmarked) | 11.5
52 | Cc1cc(C(F)(F)F)nn1CC(=O)NNC(=S)Nc1ccc(F)cc1 | 13.2
53 | O=[N+]([O-])c1cccc(-c2noc(-c3ccco3)n2)c1 | 14
54 | COc1ccc(NC(=O)CSc2n[nH]c(C(C)C)n2)c([N+](=O)[O-])c1 | -17.8
55 | CN(C)C(=O)c1cc(C(=O)Cc2ccccc2)c[nH]1 | 23.3
56 | CCN(C(=O)c1cc2c(s1)-c1ccccc1S(=O)(=O)C2)c1cc(OC)ccc1OC | -36.1
57 | CCOc1ccccc1N1CCN(Cc2cc3c(cc2[N+](=O)[O-])OCO3)CC1 | -20.6
58 | COCCN(Cc1ccc(C)c(Br)c1)C(=O)Cn1cnc(S(=O)(=O)N2CCCC2)c1 | -18.2
59 | O=C1CC(c2ccccc2)CC(O)=C1C=NCc1ccc(Cl)cc1 (centres unmarked) | 9.85
60 | Cc1ccc(S(=O)(=O)N2CCC(N3CCN(C)CC3)CC2)cc1Cl.O=C(O)C(=O)O | -13.8
61 | O=C(Nc1cccc(-c2nc3ncccc3o2)c1)c1ccco1 | -21.8
62 | Cc1ccc2cccc(NC(=O)C(F)(F)F)c2n1 | 2.72
63 | CCOC(=O)N1CCN(C(=O)Cn2nc(C)n3nc(-c4ccccc4)cc3c2=O)CC1 | -4.44
64 | Cc1ccc(C)c(OCCC(=O)OCC(=O)NNC(=O)c2ccccc2)c1 | 1.24
65 | CC1CCN(S(=O)(=O)c2ccc3c(c2)oc(=O)n3CC(=O)N2CCc3ccccc3C2)CC1 | 6.8
66 | COc1cccc(CC(CC(=O)O)C(=O)Nc2cc(C)ccc2C)c1 (centres unmarked) | 8.93
67 | O=C(Nc1ccc(S(=O)(=O)N2CCOCC2)cc1)c1ccc(Cl)cc1 | -30.4
68 | COc1ccc(C2=NOC(C(=O)NC(C)(C)C)C2)cc1 (centres unmarked) | -10
69 | O=C(Nc1ccncc1)c1cccn(Cc2ccccc2)c1=O | -55.8

Row | SMILES | hERG current change (%, negative = inhibition) at 10uM [%]
70 | C=CCn1c(SCC(=O)NC2CCS(=O)(=O)C2)nc2sc(CC)cc2c1=O (centres unmarked) | -47.8
71 | CCCCn1c(=O)c(C(=O)Nc2ccc(C)cn2)c(O)c2ccccc21 | 20.4
72 | Cn1cc([N+](=O)[O-])c(C(=O)NNC(=O)c2ccc([N+](=O)[O-])cc2Cl)n1 | 15.9
73 | Cc1ccc(NC(=S)N2CCCC2)cc1Cl | 11.5
74 | CCC(=O)N=c1sc2cc(F)cc(F)c2n1C | 6.06
75 | Oc1ccccc1/C=N/c1c(-c2ccco2)nc2ccccn12 | -4.17
76 | CCc1ccc(NC(=O)c2cnc3scc(C)n3c2=O)cc1 | -17.1
77 | CCCCCCC1NC(C(=O)O)CS1 (centres unmarked) | -0.451
78 | COc1ccc([N+](=O)[O-])cc1NC(=S)NC(C)=O | -11.2
79 | Cc1nc2c3ccccc3n(CC(=O)c3ccc(F)cc3)c(=O)n2n1 | -1.34
80 | O=C(COc1ccc([N+](=O)[O-])cc1)NCc1cccnc1 | -33.4
81 | Cl.OC(c1ccccc1)(C1CCCCC1)C(CN1CCOCC1)c1ccccc1 (centres unmarked) | -12.5
82 | C1CCC2S[C@H]3CCCCC3NC2C1 (some centres unmarked) | 13.5
83 | Fc1ccc(C2=Nn3c(nnc3-c3n[nH]c4c3CCC4)SC2)cc1 | -4.36
84 | CCn1c(CN2C(=O)CSc3ccccc32)n[nH]c1=S | -3.82
85 | CC(NC(=O)NNC(N)=S)(C(F)(F)F)C(F)(F)F | 4.68
86 | O=C(Nc1nc2ccccc2n1CCOc1ccc(Cl)cc1)c1ccco1 | -3.34
87 | COc1cc(NC(=S)NC(C)=O)ccc1NC(=O)C(C)C | -2.88
88 | COc1ccc([N+](=O)[O-])cc1C(=O)C(=O)c1ccccc1 | 8.56
89 | CCOCCn1c(=NC(=O)/C=C/c2ccccc2Cl)sc2cc(NC(C)=O)ccc21 | -0.453
